Experimental data taken from the supplement of paper PMC8728848.
Some of the results follow.

Assays:
Assay in all cases: glycan array binding signal (z-score within array); higher = stronger binding
Details in all cases: glycan notation: IUPAC condensed, linker removed
[1] = target: Man(a1-2)Man(a1-3)[Man(a1-2)Man(a1-6)]Man
Outline: (§1)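 The Consortium for Functional Glycomics database supplied 3228 glycan arrays, of which those lacking an available protein sequence were dropped. The binding signal, a within-array Z-score, was averaged across arrays of the same protein sequence and across linkers. Negative scores can be read as non-binding.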

[2] = target: Man(a1-2)Man(a1-3)[Man(a1-2)Man(a1-6)]Man(a1-6)[Man(a1-2)Man(a1-2)Man(a1-3)]Man
Outline: as §1

[3] = target: Man(a1-2)Man(a1-3)[Man(a1-2)Man(a1-6)]Man(a1-6)[Man(a1-2)Man(a1-2)Man(a1-3)]Man(b1-4)GlcNAc(b1-4)GlcNAc
Outline: as §1

[4] = target: Man(a1-2)Man(a1-3)[Man(a1-6)]Man(a1-6)[Man(a1-2)Man(a1-3)]Man(b1-4)GlcNAc(b1-4)GlcNAc
Outline: as §1

[5] = target: Man(a1-2)Man(a1-6)[Man(a1-3)]Man(a1-6)[Man(a1-2)Man(a1-2)Man(a1-3)]Man
Outline: as §1

[6] = target: Man(a1-2)Man(a1-6)[Man(a1-3)]Man(a1-6)[Man(a1-2)Man(a1-2)Man(a1-3)]Man(b1-4)GlcNAc(b1-4)GlcNAc
Outline: as §1

[7] = target: Man(a1-3)[Man(a1-6)]Man
Outline: as §1

[8] = target: Man(a1-3)[Man(a1-6)]Man(a1-6)[Man(a1-2)Man(a1-3)]Man(b1-4)GlcNAc(b1-4)GlcNAc
Outline: as §1

[9] = target: Man(a1-3)[Man(a1-6)]Man(a1-6)[Man(a1-3)]Man
Outline: as §1

[10] = target: Man(a1-3)[Man(a1-6)]Man(a1-6)[Man(a1-3)]Man(b1-4)GlcNAc(b1-4)GlcNAc
Outline: as §1

[11] = target: Man(a1-3)[Man(a1-6)]Man(b1-4)GlcNAc(b1-4)GlcNAc
Outline: as §1

[12] = target: Man(a1-3)[Man(a1-6)]Man(b1-4)GlcNAc(b1-4)[Fuc(a1-6)]GlcNAc
Outline: as §1

[13] = target: Man(a1-6)Man
Outline: as §1

[14] = target: Man(b1-4)GlcNAc
Outline: as §1

[15] = target: MurNAc(b1-4)GlcNAc
Outline: as §1

[16] = target: Neu5Ac(a2-3)Gal
Outline: as §1

[17] = target: Neu5Ac(a2-3)Gal(b1-3)GalNAc
Outline: as §1

[18] = target: Neu5Ac(a2-3)Gal(b1-3)GalNAc(b1-3)Gal(a1-4)Gal(b1-4)Glc
Outline: as §1

[19] = target: Neu5Ac(a2-3)Gal(b1-3)GalNAc(b1-4)Gal(b1-4)Glc
Outline: as §1

[20] = target: Neu5Ac(a2-3)Gal(b1-3)GalNAc(b1-4)[Neu5Ac(a2-3)]Gal(b1-4)Glc
Outline: as §1

[21] = target: Neu5Ac(a2-3)Gal(b1-3)GalNAc(b1-4)[Neu5Ac(a2-8)Neu5Ac(a2-3)]Gal(b1-4)Glc
Outline: as §1

[22] = target: Neu5Ac(a2-3)Gal(b1-3)GalNAc6S
Outline: as §1

[23] = target: Neu5Ac(a2-3)Gal(b1-3)GlcNAc
Outline: as §1

[24] = target: Neu5Ac(a2-3)Gal(b1-3)GlcNAc(b1-2)Man
Outline: as §1

[25] = target: Neu5Ac(a2-3)Gal(b1-3)GlcNAc(b1-2)Man(a1-3)[GlcNAc(b1-4)][Neu5Ac(a2-3)Gal(b1-3)GlcNAc(b1-2)Man(a1-6)]Man(b1-4)GlcNAc(b1-4)GlcNAc
Outline: as §1

[26] = target: Neu5Ac(a2-3)Gal(b1-3)GlcNAc(b1-2)Man(a1-3)[Neu5Ac(a2-3)Gal(b1-3)GlcNAc(b1-2)Man(a1-6)]Man(b1-4)GlcNAc(b1-4)GlcNAc
Outline: as §1

[27] = target: Neu5Ac(a2-3)Gal(b1-3)GlcNAc(b1-2)[Neu5Ac(a2-3)Gal(b1-3)GlcNAc(b1-4)]Man(a1-6)[Neu5Ac(a2-3)Gal(b1-3)GlcNAc(b1-2)Man(a1-3)]Man(b1-4)GlcNAc(b1-4)GlcNAc
Outline: as §1

[28] = target: Neu5Ac(a2-3)Gal(b1-3)GlcNAc(b1-3)Gal(b1-3)GlcNAc
Outline: as §1

[29] = target: Neu5Ac(a2-3)Gal(b1-3)GlcNAc(b1-3)Gal(b1-4)GlcNAc
Outline: as §1

[30] = target: Neu5Ac(a2-3)Gal(b1-3)GlcNAc(b1-3)GalNAc
Outline: as §1

B1: a L Fucosidase (Streptosporangium roseum), D2B1P1_STRRD (protein)
chain: MRRKLLLVPAVGLLVIGSIFATQPVASADTPPVYEPTVESLNSHPVPQWFNDDKFGIFIHWGAYSVPAWGPRGSYAEWYGNYMNAGGSATNAHHKATYGQDFNYDAFLQQWKAEKFDPADWVKLFKDAGAKYFVLTSKHHEGMALWDSKSSGRDSVDLGPGRDLAKELFDAARKDEAKLKAGFYYSLYEWYNPAYTGRPATNPYTGAEIPYTGAPGGGDYVKDYMLPQMRELIDGYDPDIIWCDGQWEKPASYWNTAGVIADYYNKALNSGKEVAVANRCKIQSGNLDSPELDFQTPEYTVKPDIDPVKWESSRGIAHSYGYNQNEPEEDHLTSDQLVDSLVDIVSKNGNLLLDIGPKADGTIPEIQRQRLLDIGAWLKANGEAIYGTTYWNRAEEKGGPDDVRYTAKDATLYATALKWPGEQLTLGADLPVDHSTRITMLGSGARLSWSRDEQGRVVVNTPQEAGKHAYVFKIETPGVRSLLRTSSSLAKEIAPGRTISGELTVTNPGKRHTPATKLSLTVPQGWTATLGAPRVRPLGPGESVKVPISVSAPEGVAPAPYTLGLYQRTGRMGTTTALPLTVNRPNLSLGKPATQKSTGYDAPASRAVDGNTGGDWSAGSTTHTAEPEKQAWWQVDLGASARLDSVDVWNRLDCCADRLKDFWVMASDQPFTTDDLDQARTAPGVTAVHVGEQAGSPSKVKLPEGTRGRYVRIQLASPSNPLSLAEVQVRGSMARPNLSLGKPATQKSTGYDAPASRAVDGNTGGDWSAGSTTHTAEPEKQAWWQVDLGASARLDSVDVWNRLDCCADRLKDFWVMASDQPFTTDDLDQARTAPGVTAVHVGEQAGSPSKVKLPEGTRGRYVRIQLASPSNPLSLAEVQVRLEHHHHHHS
glycan array binding signal (z-score) [1]: -0.55
glycan array binding signal (z-score) [2]: -0.342
glycan array binding signal (z-score) [3]: -0.104
glycan array binding signal (z-score) [4]: -0.352
glycan array binding signal (z-score) [5]: -0.393
glycan array binding signal (z-score) [6]: 0.248
glycan array binding signal (z-score) [7]: 0.008
glycan array binding signal (z-score) [8]: 0.102
glycan array binding signal (z-score) [9]: -0.243
glycan array binding signal (z-score) [10]: -0.305
glycan array binding signal (z-score) [11]: -0.26
glycan array binding signal (z-score) [12]: 0.748
glycan array binding signal (z-score) [13]: -0.483
glycan array binding signal (z-score) [14]: -0.494
glycan array binding signal (z-score) [15]: -0.473
glycan array binding signal (z-score) [16]: -0.303
glycan array binding signal (z-score) [17]: -0.426
glycan array binding signal (z-score) [18]: -0.194
glycan array binding signal (z-score) [19]: 0.087
glycan array binding signal (z-score) [20]: 0.247
glycan array binding signal (z-score) [21]: -0.156
glycan array binding signal (z-score) [22]: -0.306
glycan array binding signal (z-score) [23]: -0.534
glycan array binding signal (z-score) [24]: -0.44
glycan array binding signal (z-score) [25]: 0.33
glycan array binding signal (z-score) [26]: 0.218
glycan array binding signal (z-score) [27]: 0.503
glycan array binding signal (z-score) [28]: -0.407
glycan array binding signal (z-score) [29]: -0.482
glycan array binding signal (z-score) [30]: 0.2
